# According to the RNAGym collection of RNA variant scans (doi:10.7554/elife.90254):
# Read counts are not given, so values of variants with three or more changes are uncertain.
# B1: OR4K15 (parent)
# chain: GUUAACGGUCAUAGGCCAUGGAAACUAGGAGCACCAUUUCGCUGCCAGUGAAGAAAUGAACAAAGAAAAUCUGGGCCAGGCAGGCAUCAAAAGAAAUAGUCUUGCGCUCAACCAGAAAGUCUGUAAUCAUUUUAAGGGUA
# Variants of: B1
# Experiment: self-cleavage, relative activity (ratio to wild type); higher = more cleavage; in vitro, sequencing; the parent is a self-cleaving ribozyme
row,Variant,self-cleavage
1,G28A A59G U108C,0.02
2,A27U C76U G79A A89G,0.06
3,A27G A52G U100C,1.9
4,A27U A52G A63G A68G G80A,0.27
5,G29A U38C A67G A86G,1.5
6,A24U A55U A89U U131C,1.29
7,U26C U43A A98G,0.85
8,A27G A67G A118G,0.67
9,U26C U57A A129G,1.1
10,A27G A51U U102C,2.22
11,U26C A56G G79U U97C,0.08
12,U26A A78C C85U U108C A129G,0.01
13,A27U A68G A82G,0.55
14,U26C A51G U108C,0.05
15,U26C U38C U49A A96G,1.28
16,A27G A33G U43C U49A A51G A55G,0.15
17,A27U U49C A56G A110G,0.12
18,A27G A56G A63G A82G,0.4
19,C25U A51G G115A A118G,0.04
20,A27G A36G U70C A111G,0.06
21,A27G U43C A125G,0.18
22,U26A A30U U38C A47G A64G A135G,1.53
23,A24G U108C A111G,0.02
24,C25U U87A A94G,1.44

row,Variant,self-cleavage
1,A24G U39C A63G U87C U120A U124C U131C A135G,0.65
2,U26C U102C G136U,1.78
3,A24G U39C A135G,1.2
4,A27G U39C A47U U127C,0.1
5,A27G A64U A68G U87A,0.79
6,A27G C34U A54G,0.58
7,A24G U38C A68G,0.98
8,A30C A59G C113U U127A,0.02
9,C25U A117G A126G,1.49
10,A27G A64G A91G U108A A110G,0.01
11,G29A A55G A62C,1.43
12,A27G A56C U87C,0.82
13,A27G A52G A55G A60G U127C A135G G138A,0.47
14,U26C A30U A118G,0.64
15,A27U A94G U103C,1.96
16,A24G U43C U87C U100C,2.24
17,U26C U43C A94U U132C,2.07
18,A27G A78U A92G U97C,0.28
19,U26G A51U A59G,0.34
20,U26A U39C A82G A94U,0.39
21,A30G A51C U102A,1.04
22,A24G U43C U103C,1.26
23,A30G A33C U49A A68G U124C,0.72
24,U26C A67G A69G A82G A129G,0.57

row,Variant,self-cleavage
1,A24U U39C A78U,0.78
2,U26C A56G A62G A111G A135G,0.09
3,A27G A89U U122C,1.34
4,A24G U102C U127C,0.77
5,U26C A114C U132C,0.02
6,U26C U49A A78U A135U,0.15
7,A24G U132C A134G,1.51
8,G28U A59G C77U A90G,0.81
9,U26C A54U U72A,0.29
10,A24G U39C U72C,0.64
11,A24U C45A A62C,1.46
12,A27G U43A A126U,1.41
13,U26C A51G A63U A117G,1.17
14,U26C A33U A59G A64G A116G,0.39
15,C25U U38C A52U A117G,1.83
16,A30G A33C A47G A66U U87C U100C,1.4
17,A30G A36G U132C,1.95
18,A27U A69U A117G U131C,1.14
19,U26A A62G A64G,1.62
20,U26A U70A U131C,1.15
21,A27G A91U C105G U122C U132C U133C,0
22,U26A A62G A67G,1.55
23,A30G A33G U38C U70C,0.49
24,A24G U37C U43C U57C G80A U97C A111G,0.01

row,Variant,self-cleavage
1,A24G U38C A64G A82U U122A,0.12
2,A27G U49C A63G U122A U133C,1.05
3,U26C A56G A68G A94G A117G,1.33
4,A24G U39C A82U A110G,0.1
5,A24G U37C A47G A59U A90G U133C,1.71
6,A30G A52G C61U U72A,0.38
7,A24U A52G A118G,0.84
8,A27G U39C C46U A51U A54U,1.53
9,U26C A67G A78G A96G,0.32
10,U26A C77U A116G,1.38
11,U26C A68G U132A,1.68
12,U26C U37C A92G A116G,0.26
13,U26C A62G A68G A92G,0.59
14,A24G U102C U130C,1.38
15,A24G U43C A51G A52G U87C,0.48
16,U26C C77U A89U A96G,1.93
17,A24G U38C A64G A86G U103C U131C,1.18
18,U26C C35A A54G A98U U130C U139C,1.42
19,A30G A33G U108C,0.09
20,A30G A47U A95G,1.2
21,A27G A82U A92G,0.26
22,A24U A52G G74A U108C A110G,0.01
23,U26C A66G C77U,1.98
24,A27G A94G U100C A117G,2.07

row,Variant,self-cleavage
1,U26C A59G U87C,0.62
2,A24G U43G A64G A96G,1.22
3,U26C A62U U130C,1.73
4,A27G U38C A52U U70C,0.61
5,A30G A51G U108A U122C,0.02
6,U26C G31A A56G G80U A86G,0.2
7,C25U U49C U57C U108C A129C,0
8,A27U U43C A56G U70C U122C,0.39
9,A24U U39C U72A U132A,0.21
10,A27G A67G A95G A111U,0.13
11,G29A U100C A110G A140G,0.18
12,U26G A30U A59U U103C,0.54
13,U26A A55G A63G A67G U132C,1.24
14,A27U U87G A90G A92G,0.59
15,U26C A30G A55G G74A A94G A96G U108A,0.04
16,A24U A78U U103C A110G A134G,0.01
17,G29C A82G U132C,0.54
18,A27G A78G A129G,0.06
19,A27G A30U U43A A129G,1.32
20,A24G U49A A64U,2.19
21,A27G U39C A86G A96C G119C,0.12
22,A30G A36G A47G,1.99
23,U26C A54G A117U,0.58
24,A24G U38A U87C,1.49

row,Variant,self-cleavage
1,U26C U49C A111G A116G A126G,0
2,U26G A52G A94G U100C A118G,1.2
3,U26C U39C G99A A117G,0.3
4,U26A A30G A55G A116G U122C,0.09
5,A24U A56G A78U U133C,0.55
6,U26C U70C A89C A92G,0.25
7,A27G A30G C45G A125G U132C,0.64
8,G29U U43G U70C A90U A96U,2.08
9,A24G U72A A89G U122C U132A,0.11
10,C25U A56G U72A U102C A118G,0.14
11,A24U A56G A62U A98U U131C,2.34
12,U26C A52G A68G U70C A116G,1.59
13,A30G A51U G84A,0
14,A27U A111G A129G,0
15,U26A A62G A68G U72C U108C,0
16,A24U U37C U38C A64G G80A,0.23
17,A30G A51G U100A,0.23
18,A24U A59G U72A U139C,0.15
19,U26C C35U A67G,1
20,A27G U39C U70C A91G A110U A111G,0.03
21,A30C A110G U120C,0.05
22,A27G U49C U72C U87C A110G,0.01
23,A30G A51G G104A U122C,0.03
24,A24G U87C A96G C105U,0.07

row,Variant,self-cleavage
1,A24U G53A A110G,0.21
2,A24G U43C A56G C105U U131C,0.09
3,G29A U72A U127C,0.15
4,A27G A60G C61G U108C A111G,0
5,U26A C40U A86U A135G,1.55
6,A24G U49A A89G,1.63
7,A24U U43G A59G G73A G74A,0.46
8,G29A A67G U122C,0.84
9,U26C A52G A96U A117G A126G U130C,0.71
10,A30C A66G U139C,1.4
11,A24U A54U A64G,1.5
12,G29A A59G U120A,1.41
13,A30G A33G A60G A68G G74C A78U A118G U120C,0.04
14,A27G U102C U122C,2.15
15,A27G A51G A78U,0.53
16,U26C A36C A67G A126G,2.02
17,U26A A33U A64G A66G A67G,0.37
18,A24U A54G A55G A78G U124C A125G,0.2
19,A27G A60G A67G,1.29
20,U26C U57C A59G A96U A118G,0.83
21,U26C A86G A90G A91G U100C,1.69
22,A27G A67G U127C,0.85
23,G28A A30G U37C U57A,1.03
